This is an account of results in PubChem BioAssay AID1745853 (National Center for Advancing Translational Sciences (NCATS), 2022).

“And” between values parts separate entries of the source, which are not always exact repeats. Equal values may be shown once. The list shows a part of the results. The main result of the screen is listed elsewhere. These columns were measured beside it and carry no call.

What all share (test): Primary Screen for Target Class Profiling of Small Molecule Inhibitors of Methyltransferases
The target of test [1] is Glycine N-methyltransferase (Homo sapiens) (UniProt Q14749). The settings on record: purified enzyme, MTase-Glo SAH luminescence; measured here: GNMT inhibition; at 40 µM; stronger effect = lower value. In short, it runs like this:
(§1)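 Each enzyme was reacted with SAM and its substrate, with compounds tested once at 40 uM; SAH formed was read by MTase-Glo luminescence.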

The target of test [2] is Guanidinoacetate N-methyltransferase (Homo sapiens) (UniProt Q14353). The conditions noted are these: purified enzyme, MTase-Glo SAH luminescence; measured here: GAMT inhibition; at 40 µM; stronger effect = lower value. In short, it runs like this: as §1
Test [3] concerns the target Histamine N-methyltransferase (Homo sapiens) (UniProt P50135). The conditions noted are these: purified enzyme, MTase-Glo SAH luminescence; measured here: HNMT inhibition; at 40 µM; stronger effect = lower value. In short, it runs like this: as §1
Test [4] addresses Nicotinamide N-methyltransferase (Homo sapiens) (UniProt P40261). The conditions noted are these: purified enzyme, MTase-Glo SAH luminescence; measured here: NNMT inhibition; at 40 µM; stronger effect = lower value. In short, it runs like this:
as §1

Test [5] has as its target Phenylethanolamine N-methyltransferase (Homo sapiens) (UniProt P11086). The settings on record: purified enzyme, MTase-Glo SAH luminescence; measured here: PNMT inhibition; at 40 µM; stronger effect = lower value. In outline: as §1
% is set by controls: 0 for no effect and ±100 for the full control effect.

Take `C[C@]1(O)CC[C@@H]2C(C(=O)O)=CO[C@@H](O[C@@H]3O[C@H](COC(=O)c4ccc(O)cc4)[C@@H](O)[C@H](O)[C@H]3O)[C@@H]21`: the activity change, negative = inhibition in test [1] was 5.58%; in test [2], 6.89%; in test [3], 12.6%; in test [4], -5.91%; in test [5], 6.13%.

Take `Cc1ccc(CN2CCCCCCNC(=O)[C@@H]3C[C@@H](C(=O)NCCc4cnc[nH]4)C[C@@H]32)o1`: the activity change, negative = inhibition in test [1] was -13%; in test [2], -10.9%; in test [3], -7.17%; in test [4] it was -17.4%; in test [5] it was -13.2%.

As for `CC1CCCCC1NC(=O)C1(C)Cn2c(cc3occc32)C(=O)N1CCN(C)C1CCCCC1` (stereo not given), the activity change, negative = inhibition in test [1] was 4.37%; in test [2] it was 1.73%; in test [3], 5.84%; in test [4] it was 2.65%; in test [5], 0.217%.

As for `Fc1ccc(-n2cc(CCCCN3CCC4(CC3)OCc3ccccc34)c3ccccc32)cc1`, the activity change, negative = inhibition in test [1] was -2.73%; in test [2], -0.427%; in test [3], -0.064%; in test [4], -22.8%; in test [5], -6.63%.

Turning to `C/C=C/C=C/c1cc2c(C=O)c(O)c(CC=C(C)C)cc2o1`, the activity change, negative = inhibition in test [1] was -16%; in test [2] it was -18.5%; in test [3], 1.41%; in test [4] it was -29.5%; in test [5], -2.42%.

Take `CC1=CCC[C@@H]2[C@](CCc3ccoc3)(C(=O)O)[C@H](C)CC[C@@]12C`: the activity change, negative = inhibition in test [1] was -1.22%; in test [2], 4.31%; in test [3] it was 6.31%; in test [4], -11.6%; in test [5], 0.583%.

For `CCCn1c(=O)c2ccc(C(=O)NC3CCCC3)cc2n2c(=O)n(CC(=O)Nc3ccccc3)nc12`, the activity change, negative = inhibition is -0.017% in test [1]; 0% in test [2]; 5.48% in test [3]; 3% in test [4]; 3.21% in test [5].

As for `CCN1CCC(N2CCC3(CC2)CC2C(=O)N(CC)C(=O)N2C3)CC1` (stereo not given), the activity change, negative = inhibition in test [1] was -3.99%; in test [2], -2.16%; in test [3], -1.98%; in test [4], -0.996%; in test [5], 12.5%.

Consider `C[C@@H]1O[C@@H](OC[C@H]2O[C@@H](OCCc3ccccc3)[C@H](O)[C@@H](O)[C@@H]2O)[C@H](O)[C@H](O)[C@H]1O`, for which the activity change, negative = inhibition in test [1] is 0%; in test [2] it was 2.62%; in test [3] it was 0.152%; in test [4] it was -11%; in test [5], 4.07%.

With `COc1cc(C/C(=C/NC(C)=O)N(CC(=O)Cc2ccccc2)C(C)=O)cc2c1OCO2`, the activity change, negative = inhibition in test [1] is -0.301%; in test [2], -6.13%; in test [3], -1.17%; in test [4], -24.7%; in test [5], -0.142%.

Turning to `COc1cccc(OCCCN)c1-c1cc(Nc2cnc(C#N)cn2)n[nH]1`, the activity change, negative = inhibition in test [1] was -0.106%; in test [2] it was 10.7%; in test [3], 0.481%; in test [4] it was -7.17%; in test [5], -12%.

Turning to `COC(=O)c1cc2n(n1)CC(C)(C(=O)NC1CCCCCC1)N(Cc1ccccc1Cl)C2=O` (stereo not given), the activity change, negative = inhibition was 1.08% in test [1]; 0% in test [2]; 2.62% in test [3]; -1.98% in test [4]; 0.587% in test [5].

`Cn1c(=O)c2ccc(C(=O)NC3CCCCC3)cc2n2c(=O)n(Cc3ccc(F)cc3Cl)nc12`: the activity change, negative = inhibition was determined as 7.08% in test [1]; 0% in test [2]; 13.5% in test [3]; 5.82% in test [4]; 6.61% in test [5].

As for `Cc1noc(C)c1S(=O)(=O)N1CC(C(=O)NC2CCCCC2)C2(CCOCC2)C1` (stereo not given), the activity change, negative = inhibition was -1.3% in test [1]; 2.91% in test [2]; 1.97% in test [3]; 1.7% in test [4]; 2.48% in test [5].

Consider `CC(C)CCN1C(=O)c2ccc(-c3ccco3)n2CC1(C)C(=O)NC1CCCCC1C` (stereo not given), for which the activity change, negative = inhibition in test [1] was -0.569%; in test [2] it was 2.95%; in test [3], 7.01%; in test [4], -3.79%; in test [5], -1.03%.

On to `CC(C)CCNc1ncccc1C(=O)N1CCN(Cc2ccccc2)CC1`, for which the activity change, negative = inhibition is -3.5% in test [1]; -13.1% in test [2]; 6.16% in test [3]; -30.6% in test [4]; -7.02% in test [5].

Regarding `COc1ccccc1N1CCN(CCN2C(=O)CC3(CCCC3)CC2=O)CC1`, the activity change, negative = inhibition was 2.13% and 2.68% in test [1]; 6.46% and 8.38% in test [2]; 11% and 4.27% in test [3]; -8.73% and -4.21% in test [4]; 4.55% and 6.92% in test [5].

As to `CC1CCC(NC(=O)C2(C)Cn3c(cc4occc43)C(=O)N2CCN2CCCCCC2)CC1` (stereo not given), the activity change, negative = inhibition in test [1] was 2.67%; in test [2], 1.72%; in test [3], -1.64%; in test [4] it was 2.43%; in test [5], 0.556%.

Take `O=C(CCc1nnc2n(Cc3ccc(F)cc3)c(=O)c3ccccc3n12)NC1CCN(Cc2ccccc2)CC1`: the activity change, negative = inhibition in test [1] is 0.823%; in test [2], 0.375%; in test [3], -8.37%; in test [4], 3.49%; in test [5], 0.202%.

With `CC(C)CNC(=O)c1ccc2c(=O)n(C)c3nn(Cc4ccccc4F)c(=O)n3c2c1`, the activity change, negative = inhibition in test [1] is -7.79%; in test [2], 0%; in test [3] it was 1.67%; in test [4], -3.69%; in test [5], 1.79%.

On to `CN1Cc2sccc2C(c2ccc(O)c(O)c2)C1` (stereo not given), for which the activity change, negative = inhibition in test [1] was -31.8%; in test [2] it was 14%; in test [3] it was -0.715%; in test [4], -3.45%; in test [5] it was 2.52%.

On to `CCc1nccn1Cc1nnc(C2CC(N)C2)n1CCOC` (stereo not given), for which the activity change, negative = inhibition in test [1] was -5.42%; in test [2], -9.51%; in test [3] it was -4.17%; in test [4], -14.7%; in test [5], -10.7%.

As for `CN1C(=O)c2cc(C(=O)NCCCN3CCOCC3)nn2CC1(C)C(=O)NCc1ccccc1` (stereo not given), the activity change, negative = inhibition was 1.91% in test [1]; 4.08% in test [2]; -2.9% in test [3]; 2.62% in test [4]; -0.384% in test [5].

On to `O=C(NC1CCCCC1)[C@@H]1C[C@@H](O)CN1C1CCN(C(=O)c2ccccc2F)CC1`, for which the activity change, negative = inhibition in test [1] is -7.98%; in test [2] it was -8.87%; in test [3], -4.62%; in test [4], -11.8%; in test [5], -8.87%.

As to `O=C(NCCNC(=O)c1ccccc1F)c1ccc(-c2cncnc2)cc1`, the activity change, negative = inhibition in test [1] is -5.6%; in test [2] it was -3.62%; in test [3], -4.14%; in test [4], -12.5%; in test [5] it was -5.87%.

With `CC1OC(OC2C(C)OC(OC3C(OC(=O)C45CCC(C)(C)CC4C4=CCC6C7(C)CCC(OC8OC(C(=O)O)C(O)C(O)C8OC8OC(CO)C(O)C(OC9OC(C)C(O)C(O)C9O)C8O)C(C)(CO)C7CCC6(C)C4(C)CC5)OC(CO)C(O)C3O)C(O)C2O)C(O)C(O)C1O` (stereo not given), the activity change, negative = inhibition in test [1] is 3.19%; in test [2], -1.36%; in test [3], 8.13%; in test [4], -12.2%; in test [5], -6.01%.

Consider `CC1(C(=O)NC2CCCCCC2)Cn2c(cc3sccc32)C(=O)N1c1ccc(Cl)cc1` (stereo not given), for which the activity change, negative = inhibition was 0.822% in test [1]; 0% in test [2]; 3.38% in test [3]; 4.99% in test [4]; -2.35% in test [5].

As to `Cc1cc(Nc2nc(NC(C)c3ncc(F)cn3)ncc2Cl)n[nH]1` (stereo not given), the activity change, negative = inhibition is -12.1% in test [1]; 1.95% in test [2]; 3.79% in test [3]; -15.7% in test [4]; 3.39% in test [5].

As for `CCN1c2cc(C(=O)NCc3ccncc3)ccc2C(=O)N2CCCCC21` (stereo not given), the activity change, negative = inhibition in test [1] was -11.6%; in test [2] it was -1.4%; in test [3], -3.61%; in test [4] it was -4.62%; in test [5] it was 0.53%.

For the compound `OCC(O)CN1CCN(c2ccccc2)CC1` (stereo not given), the activity change, negative = inhibition in test [1] is 0.085%; in test [2] it was 0.89%; in test [3] it was 8.5%; in test [4] it was -11.4%; in test [5] it was 2.73%.

`Cc1ccc(CNC(=O)C2(C)Cn3cnc(C(=O)NCc4cccc(C)c4)c3C(=O)N2C2CC2)cc1` (stereo not given): the activity change, negative = inhibition in test [1] is -4.51%; in test [2], -2.79%; in test [3] it was 0.354%; in test [4], -8.7%; in test [5], -3.63%.

Consider `Cc1cc(C(=O)NC[C@@H]2OC[C@@]3(C)[C@H]4CC[C@@H](O)[C@@H](CC(=O)N5CCCC5)[C@]4(C)CC[C@H]3O2)no1`, for which the activity change, negative = inhibition in test [1] was -0.809%; in test [2], -0.526%; in test [3], -2.17%; in test [4] it was -3.4%; in test [5], -1.78%.

For the compound `CC1(C(=O)NC2CCCCC2)Cn2c(nc3ccccc32)C(=O)N1CCc1ccc(Cl)cc1` (stereo not given), the activity change, negative = inhibition is 6.83% in test [1]; 0% in test [2]; 8.22% in test [3]; 8.73% in test [4]; 3.13% in test [5].

Regarding `COc1ccc(OC)c(S(=O)(=O)N2CCCN(C)c3ccccc32)c1`, the activity change, negative = inhibition in test [1] is -14.6%; in test [2], -4.23%; in test [3], -4.81%; in test [4], -18.7%; in test [5], -13.5%.

On to `COc1ccc(-n2[nH]c3c(cnc4ccccc43)c2=O)cc1`, for which the activity change, negative = inhibition was -6.51% in test [1]; -3.43% in test [2]; -30.3% in test [3]; -18.4% in test [4]; -0.857% in test [5].

For the compound `COCCN1CC2(CCCN(Cc3cc(C(C)(C)C)n[nH]3)C2)CCC1=O` (stereo not given), the activity change, negative = inhibition is -3.82% in test [1]; -3.94% in test [2]; -1.46% in test [3]; -6.11% in test [4]; -4.54% in test [5].

In the case of `O[C@@H](COc1cccc2ncccc12)CN1CCN(C2c3ccccc3[C@@H]3[C@H](c4ccccc42)C3(F)F)CC1` (stereo not given in full), the activity change, negative = inhibition in test [1] is 6.98%; in test [2], -12%; in test [3] it was 6.53%; in test [4] it was -45.6%; in test [5], -14%.
